B1: GPR68, Q15743 (parent)
chain: MGNITADNSSMSCTIDHTIHQTLAPVVYVTVLVVGFPANCLSLYFGYLQIKARNELGVYLCNLTVADLFYICSLPFWLQYVLQHDNWSHGDLSCQVCGILLYENIYISVGFLCCISVDRYLAVAHPFRFHQFRTLKAAVGVSVVIWAKELLTSIYFLMHEEVIEDENQHRVCFEHYPIQAWQRAINYYRFLVGFLFPICLLLASYQGILRAVRRSHGTQKSRKDQIQRLVLSTVVIFLACFLPYHVLLLVRSVWEASCDFAKGVFNAYHFSLLLTSFNCVADPVLYCFVSETTHRDLARLRGACLAFLTCSRTGRAREAYPLGAPEASGKSGAQGEEPELLTKLHPAFQTPNSPGSGGFPTGRLA

Series [1] covers variants of B1. Briefly: cAMP reporter score (Enrich2 score, wild type = 0); higher = more signal; HEK293T, FACS bins.
Variants of B1 are the subject of series [2]. The series can be described thus: surface expression score (Enrich2 score, wild type = 0); higher = more signal; HEK293T, FACS bins.

Scores with a large standard error are left out. The source holds two more conditions with little spread; they are left out. Read del as a deletion of the residues named and ins as an insertion between two positions. For some assays here: How much ogerin was present is not stated here.

Turning to L68N, the cAMP reporter score in series [1] (pH 5.5) is -1.82; in series [1] (pH 6, modulator: ogerin) it was -0.718; in series [1] (pH 6.5, modulator: ogerin), -0.595. Moreover, the surface expression score in series [2] is -1.75.

Turning to L68E, the cAMP reporter score in series [1] (pH 5.5) is -1.21; in series [1] (pH 6, modulator: ogerin), -1.17; in series [1] (pH 6.5, modulator: ogerin), -1.91. In addition, the surface expression score in series [2] is -2.96.

As for P75_F76del, the cAMP reporter score in series [1] (pH 5.5) was -0.482; in series [1] (pH 6) it was 0.644; in series [1] (pH 6, modulator: ogerin), -0.687; in series [1] (pH 6.5, modulator: ogerin), -0.391. In addition, the surface expression score in series [2] turned out to be 0.395.

In the case of C72Y, the cAMP reporter score in series [1] (pH 5.5) is -0.688; in series [1] (pH 6), -0.476; in series [1] (pH 6, modulator: ogerin), -0.79; in series [1] (pH 6.5, modulator: ogerin) it was -0.631. For the same variant, the surface expression score in series [2] is -0.778.

Turning to C72D, the cAMP reporter score in series [1] (pH 5.5) was -2.1; in series [1] (pH 6, modulator: ogerin), -1.96; in series [1] (pH 6.5, modulator: ogerin) it was -1.68. In series [2], the surface expression score was -2.16.

On to C72N, for which the cAMP reporter score in series [1] (pH 5.5) was -0.486; in series [1] (pH 6.5, modulator: ogerin) it was -0.421.

As for C72E, the cAMP reporter score in series [1] (pH 5.5) was -1.08; in series [1] (pH 6) it was -1.41; in series [1] (pH 6, modulator: ogerin) it was -3.09.

Take C72Q: the cAMP reporter score in series [1] (pH 5.5) was -1.11; in series [1] (pH 6), 1.02; in series [1] (pH 6.5, modulator: ogerin), -0.205. Besides, the surface expression score in series [2] is -2.07.

Regarding C72A, the cAMP reporter score in series [1] (pH 5.5) amounted to 0.679; in series [1] (pH 6) it was 2.06; in series [1] (pH 6, modulator: ogerin) it was 1.3; in series [1] (pH 6.5, modulator: ogerin), 1.32. In series [2], the surface expression score is -0.409.

Take C72S: the cAMP reporter score amounted to 1.1 in series [1] (pH 5.5); 1.35 in series [1] (pH 6); 1.27 in series [1] (pH 6, modulator: ogerin); 0.068 in series [1] (pH 6.5, modulator: ogerin). In addition, the surface expression score in series [2] was -0.954.

Regarding C72K, the cAMP reporter score in series [1] (pH 5.5) was -2.03; in series [1] (pH 6) it was -0.907; in series [1] (pH 6, modulator: ogerin), -0.599; in series [1] (pH 6.5, modulator: ogerin), -0.969. For the same variant, the surface expression score in series [2] was -2.48.

As for C72F, the cAMP reporter score in series [1] (pH 5.5) is -0.503; in series [1] (pH 6), 0.85; in series [1] (pH 6, modulator: ogerin) it was -0.207; in series [1] (pH 6.5, modulator: ogerin), -0.199. Further, in series [2], the surface expression score is -1.08.

Regarding C72T, the cAMP reporter score is 0.383 in series [1] (pH 5.5); 0.297 in series [1] (pH 6); -0.495 in series [1] (pH 6, modulator: ogerin); 0.522 in series [1] (pH 6.5, modulator: ogerin). The surface expression score in series [2] amounted to 0.096.

Consider C72W, for which the cAMP reporter score in series [1] (pH 5.5) is 1.1; in series [1] (pH 6), -0.324; in series [1] (pH 6, modulator: ogerin) it was -0.149; in series [1] (pH 6.5, modulator: ogerin) it was -0.969. Also, in series [2], the surface expression score was -2.15.

For the variant C72G, the cAMP reporter score in series [1] (pH 5.5) was -0.568; in series [1] (pH 6), -0.26; in series [1] (pH 6, modulator: ogerin) it was -0.569; in series [1] (pH 6.5, modulator: ogerin), 0.03. For the same variant, the surface expression score in series [2] is -1.57.

Consider C72R, for which the cAMP reporter score in series [1] (pH 5.5) was -1.49; in series [1] (pH 6), -0.37; in series [1] (pH 6, modulator: ogerin) it was -1.75; in series [1] (pH 6.5, modulator: ogerin), -0.982. Further, in series [2], the surface expression score is -1.81.

On to C72I, for which the cAMP reporter score in series [1] (pH 5.5) was determined as 0.999; in series [1] (pH 6, modulator: ogerin), 1.65; in series [1] (pH 6.5, modulator: ogerin) it was 0.393. Moreover, in series [2], the surface expression score is 1.81.

For the variant C72H, the cAMP reporter score is -1.13 in series [1] (pH 5.5) and -0.924 in series [1] (pH 6.5, modulator: ogerin).

Regarding C72L, the cAMP reporter score was 0.141 in series [1] (pH 5.5); 0.458 in series [1] (pH 6); 0.269 in series [1] (pH 6, modulator: ogerin); -0.282 in series [1] (pH 6.5, modulator: ogerin). In series [2], the surface expression score came out at 0.658.

Take F76del: the cAMP reporter score in series [1] (pH 5.5) was -1.4; in series [1] (pH 6), -1.17; in series [1] (pH 6, modulator: ogerin) it was -2.08; in series [1] (pH 6.5, modulator: ogerin), -1.23. For the same variant, the surface expression score in series [2] was -0.457.

As for L74_P75insGSG, the cAMP reporter score in series [1] (pH 5.5) was -1.35; in series [1] (pH 6), -1.55; in series [1] (pH 6, modulator: ogerin), -1.31; in series [1] (pH 6.5, modulator: ogerin), -0.875. Moreover, in series [2], the surface expression score is -2.9.

In the case of P75Y, the cAMP reporter score was -0.504 in series [1] (pH 5.5); -0.708 in series [1] (pH 6); -0.996 in series [1] (pH 6, modulator: ogerin); 0.12 in series [1] (pH 6.5, modulator: ogerin). Also, in series [2], the surface expression score is -0.954.

As for P75H, the cAMP reporter score in series [1] (pH 5.5) is -1.56; in series [1] (pH 6) it was -0.972; in series [1] (pH 6, modulator: ogerin), -1.57; in series [1] (pH 6.5, modulator: ogerin), -1.14. Moreover, in series [2], the surface expression score was -2.15.

P75W: the cAMP reporter score is -0.602 in series [1] (pH 5.5) and -1.18 in series [1] (pH 6.5, modulator: ogerin). The surface expression score in series [2] is -1.55.

As for P75V, the cAMP reporter score is -0.178 in series [1] (pH 5.5); -0.01 in series [1] (pH 6); -0.724 in series [1] (pH 6, modulator: ogerin); -0.43 in series [1] (pH 6.5, modulator: ogerin). For the same variant, the surface expression score in series [2] amounted to 0.143.

As to P75I, the cAMP reporter score was -1.27 in series [1] (pH 5.5); -1.33 in series [1] (pH 6); -1.72 in series [1] (pH 6, modulator: ogerin); -1.83 in series [1] (pH 6.5, modulator: ogerin). For the same variant, the surface expression score in series [2] was -2.52.

Regarding P75K, the cAMP reporter score in series [1] (pH 5.5) was -1.64; in series [1] (pH 6), -0.466; in series [1] (pH 6.5, modulator: ogerin), -0.617. Besides, in series [2], the surface expression score was -2.46.

For P75R, the cAMP reporter score in series [1] (pH 5.5) is -2.12; in series [1] (pH 6) it was -0.982; in series [1] (pH 6, modulator: ogerin) it was -1.25; in series [1] (pH 6.5, modulator: ogerin) it was -0.746. The surface expression score in series [2] is -1.31.

For the variant P75S, the cAMP reporter score is -2.13 in series [1] (pH 5.5); -0.341 in series [1] (pH 6); -1.76 in series [1] (pH 6, modulator: ogerin); -1.09 in series [1] (pH 6.5, modulator: ogerin).

In the case of P75G, the cAMP reporter score in series [1] (pH 5.5) was -0.066; in series [1] (pH 6), -0.558; in series [1] (pH 6, modulator: ogerin) it was -0.708; in series [1] (pH 6.5, modulator: ogerin), -0.433. Moreover, the surface expression score in series [2] was -0.926.

Take P75L: the cAMP reporter score in series [1] (pH 5.5) was -0.776; in series [1] (pH 6) it was -0.567; in series [1] (pH 6, modulator: ogerin), -0.819; in series [1] (pH 6.5, modulator: ogerin) it was -0.666. Further, the surface expression score in series [2] was -0.797.

As to P75E, the cAMP reporter score in series [1] (pH 5.5) was -2.59; in series [1] (pH 6), -1.35; in series [1] (pH 6, modulator: ogerin), -1.95; in series [1] (pH 6.5, modulator: ogerin), -1.06. Moreover, the surface expression score in series [2] is -2.66.

Take P75C: the cAMP reporter score in series [1] (pH 5.5) was -0.431; in series [1] (pH 6), -0.056; in series [1] (pH 6.5, modulator: ogerin), -0.431.

Values taken from the GPR68 mutational scans of Howard et al. (2025).
